# In PubChem BioAssay AID1347073 (National Center for Advancing Translational Sciences (NCATS), 2019):
# Among all 45,000 compounds or so, about 200 (0.44%) were called active. About 7% were inconclusive and are not listed. Calls come from the whole dose curve; as a rule, active = well fitted activation curve with a large enough effect; inconclusive = small, poorly fitted or top-dose-only effect; inactive = no such curve, though single readings can be large or run the other way. This is one part of the list.
# Experiment: qHTS of TDP-43 Inhibitors: NCGC Sytravon Library Screen; note: 0% is about no effect; nearly all actives have a fitted effect of over 55% in size
# Details: yeast TDP-43 toxicity rescue, BacTiter-Glo growth, 24 h; series mostly up to 46.1 µM; growth rescue (activation): at the top concentration
# In short: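 TDP-43-expressing yeast, pregrown in raffinose, seeded at OD600 0.02 in galactose medium with compound for 24 hr at 30 deg C. Growth read by BacTiter-Glo luminescence, so rescue of toxicity appears as activation.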
row,Compound,growth rescue (activation)
1,O=C(NC1CCC(O)CC1)c1cc(Cl)c2c(c1)OCCO2 (stereo not given),inactive: 4.87%
2,COC(=O)C(NC(=O)c1cccnc1Cl)C(C)C (stereo not given),inactive: 26.9%
3,Cc1ccc(S(=O)(=O)N2CCOCC2)cc1NC(=O)COC(=O)COc1ccccc1[N+](=O)[O-],inactive: 1.43%
4,CC(=O)NC(c1ccccc1)c1nc(-c2cccc(C(C)C)c2)cs1 (stereo not given),inactive: 10.7%
5,O=C(NCc1ccccc1)c1c(Cl)nc(Cl)c(Cl)c1Cl,inactive: 22.5%
6,Oc1ccccc1/C=N/[n+]1ccccc1,inactive: -0.347%
7,Cc1ccc(O)c(C(=O)c2cc(C#N)c(=O)n(Cc3ccccc3)c2)c1,inactive: 4.59%
8,Cc1ccc(S(=O)(=O)NC(=S)c2ccccc2)cc1,inactive: 14.5%
9,O=C(COC(=O)c1ccc(Br)cc1)NCC1CCCO1 (stereo not given),inactive: 15%
10,COc1ccc(/C=C/C(=O)c2cccc(-n3cnnn3)c2)cc1O,inactive: -2.26%
11,CC(C)CN(C(=O)CSc1nn(-c2ccc(Cl)cc2)c(=S)s1)C1CCS(=O)(=O)C1 (stereo not given),inactive: 1.99%
12,CC(C)=CCN1CCN(Cc2nc(C(C)C)cs2)CC1CCO (stereo not given),inactive: -6.5%
13,Oc1ccc(Cl)cc1/C=C/c1ccc2cccc(O)c2n1,inactive: -93.4%
14,Cc1cccc(N2CCN(Cc3nc(-c4ccccc4Cl)oc3C)CC2)n1,inactive: 15.8%
15,COc1ccc(OC)c(NC(=O)CN2CCc3ccccc3C2)c1,inactive: 9.11%
16,COc1cc(C(CC(=O)Nc2cccc(C)n2)N2Cc3ccccc3C2=O)cc(OC)c1OC (stereo not given),inactive: -8.03%
17,O=C(Nc1ccc(Cc2nc3ccccc3s2)cc1)c1ccncc1,inactive: 20.1%
18,CC(=O)c1cccc(NC(=S)Nc2ccn(Cc3cccc4ccccc34)n2)c1,inactive: 24.6%
19,COc1ccc(S(=O)(=O)Nc2ccccc2OC)cc1NC(=O)c1cc2ccccc2oc1=O,inactive: 0.92%
20,N#Cc1c(SCC(=O)Nc2ccc(C(F)(F)F)cc2)sc2c(O)cc(=O)[nH]c12,inactive: 8.69%
21,O=C(Cn1cc(-c2ccccn2)nn1)NS(=O)(=O)c1cccc(OC(F)F)c1,inactive: -3.67%
22,COc1ccc(OC)c(Nc2nc(NCc3ccco3)c3ccccc3n2)c1,inactive: 16.6%
23,C[C@@H]1C[C@H](O)c2cc(Cl)ccc2N1,inactive: -17.6%
24,COc1ccc(N=C2NN=C(c3c(C)[nH]c4ccccc34)CS2)cc1,inactive: 4.44%
25,O=C(Nc1cccc(S(=O)(=O)N2CCOCC2)c1)c1ccc(Cl)c([N+](=O)[O-])c1,inactive: -12.6%
26,O=C(COC(=O)c1cncc(Br)c1)NC1CCCCC1,inactive: -1.47%
27,CCN(CC)CCn1c(NCc2cccc(OC)c2OC)nc2ccccc21,inactive: 7.09%

row,Compound,growth rescue (activation)
1,CC1(C)O[C@H]2[C@@H](O1)[C@@H](C(=O)Nc1ccc(F)c(F)c1)O[C@@H]1OC(C)(C)O[C@@H]12,inactive: 13.7%
2,Cc1ccc(-c2nc3ncccc3o2)cc1NC(=O)CC(C)C,inactive: 4.85%
3,COc1ccc(CCNC(=O)COc2ccc(S(=O)(=O)NC(C)C)cc2)cc1OC,inactive: 1.99%
4,C=CCNC(=O)/C(=C/c1cccc([N+](=O)[O-])c1)NC(=O)c1ccccc1,inactive: 0.704%
5,COc1ccc(NC(=O)C2=NN(C3CCS(=O)(=O)C3)C(=O)CC2)cc1S(N)(=O)=O (stereo not given),inactive: 7.7%
6,Cc1sc(NC(=O)Cn2[nH]c(=O)c3ccccc3c2=O)nc1-c1ccccc1,inactive: 11.3%
7,COc1cccc(C2CC(C(F)(F)F)n3nc(C(=O)Nc4c(C)n(C)n(-c5ccccc5)c4=O)cc3N2)c1 (stereo not given),inactive: 8.26%
8,CCn1c2ccccc2c2cc(CN3CCN(Cc4cc(OC)ccc4O)CC3)ccc21,inactive: -8.4%
9,Cc1onc(-c2c(F)cccc2Cl)c1C(=O)Nc1nccs1,inactive: 6.4%
10,CCN(CC)S(=O)(=O)c1ccc(C)c(NC(=O)CSc2nc3ccccc3[nH]2)c1,inactive: 4.87%
11,CC(=O)c1ccc(N(CC(=O)NC2CCCC2)C(=O)CNC(=O)c2cccs2)cc1,inactive: -6.19%
12,COc1ccc(/C=C/C(=O)NC(=S)Nc2ccc(S(N)(=O)=O)cc2)cc1,inactive: -3.06%
13,Cc1noc(C)c1C(=O)N1CCC1(C)C(=O)NS(=O)(=O)c1cccc(Cl)c1 (stereo not given),inactive: -1.36%
14,COc1ccc(NS(=O)(=O)c2cc(N)ccc2N2CCCC2)cc1,inactive: 11.4%
15,Oc1c(N=Nc2ccccn2)ccc2ccccc12,inactive: -77.4%
16,Cc1ccc(C(=O)NCCCNc2ccccc2[N+](=O)[O-])cc1,inactive: 3.46%
17,Cc1nnc(NC(=O)CCS(=O)(=O)c2ccccc2)s1,inactive: -7.48%
18,O=C(NCc1ccc2c(c1)OCO2)c1cc(COc2c(F)cccc2F)on1,inactive: 9.37%
19,COC(=O)C1CCN(C(=O)NC(C)(C)C)CC1,inactive: 27.2%
20,CC(C)Oc1ccc(C(CCN)C2CCCCC2)cc1 (stereo not given),inactive: 18%
21,CC1CCN(CC(=O)Nc2ccc(N3CCCCCC3)cc2)CC1,inactive: -8.43%
22,Oc1cccc2ccc(/C=C/c3c(F)cccc3Cl)nc12,inactive: 14.7%
23,O=C(NCCN1CCN(c2cccc(Cl)c2)CC1)C1COc2ccccc2C1 (stereo not given),inactive: 6.32%
24,NS(=O)(=O)c1cccc(Nc2nc3ccccc3nc2NS(=O)(=O)c2ccc(Cl)cc2)c1,inactive: 11.9%
25,COc1ccc(NC(=O)Cc2nnc(SCC(=O)NC3CCCC3)n2C)cc1,inactive: 13.4%
26,CNC(=S)N1N=C(c2ccccc2)CC1c1ccccc1Cl (stereo not given),inactive: 8.95%
27,Cc1ccnc2nc(C(=O)OCC(=O)c3c[nH]c4ccccc34)nn12,inactive: -13.1%

row,Compound,growth rescue (activation)
1,Cc1cccc(NC(=O)CS(=O)CC(=O)Nc2cnc3ccccc3c2)c1C (stereo not given),inactive: -25%
2,O=C(NCCCNC(=O)c1cnccn1)c1ccc(Br)cc1,inactive: -17.5%
3,Cn1nc(C(=O)NNC(=O)c2ccc(Cl)c(S(N)(=O)=O)c2)c2ccccc2c1=O,inactive: -11.9%
4,CC1(c2ccccc2)CC(C)(C)N(C(=O)c2cccc(Cl)c2)c2ccccc21 (stereo not given),inactive: 0.783%
5,NC(=O)c1nsc(C(=O)N(Cc2cccnc2)C(C(=O)NC2CCCCC2)c2ccc(F)cc2)c1N (stereo not given),inactive: 3.25%
6,O=S(=O)(Cc1ccccc1)N1CCN(Cc2ccc(Br)cc2)CC1,inactive: -1.2%
7,Cc1ccccc1-c1nc2ccccc2c(=O)n1/N=C/c1ccc([N+](=O)[O-])cc1,inactive: -69.8%
8,CC(=O)c1c(C)[nH]c(C(=O)Nc2ccc(S(=O)(=O)N(C)C)cc2)c1C,inactive: -8.32%
9,COc1ccc(NC(=O)c2cc(-c3ccco3)on2)cc1,inactive: -10.2%
10,CCCNC(=O)CN1CCN(c2cc3ccccc3c(Cl)n2)CC1,inactive: -1.16%
11,CC(c1ccco1)N(C(=O)c1ccccc1F)c1ccccn1 (stereo not given),inactive: 7.17%
12,COc1ccc(Nc2nc3ccccc3s2)cc1,inactive: 11.6%
13,O=S(=O)(NC(=S)NC1CCCCC1)c1ccc(Cl)cc1,inactive: 22.9%
14,O=C(c1ccccc1NS(=O)(=O)c1cccc2cccnc12)N1CCOCC1,inactive: 1.19%
15,O=C(NC(C(=O)N/N=C/c1c2ccccc2cc2ccccc12)c1n[nH]c(=O)c2ccccc12)c1ccccc1 (stereo not given),inactive: -6.36%
16,COc1cc(C(=O)NNC(=O)CNC(=O)C2CCCCC2)ccc1OC(C)C,inactive: 6.25%
17,O=C(Nc1ccccc1Cl)N1CCN(c2ncccn2)CC1,inactive: 21.2%
18,COc1cc(CN2C[C@@H](CO)O[C@@H](n3cnc4c(NC5CCCC5)ncnc43)C2)cc(OC)c1OC,inactive: 3.78%
19,C=CCn1c(SCc2ccc(C(=O)OC)cc2)nnc1-c1sc(N)nc1C,inactive: 14.4%
20,O=C(Nc1nc2ccccc2[nH]1)C1CCN(S(=O)(=O)c2cccs2)CC1,inactive: 16.2%
21,COc1ccc(C)cc1NC(=O)NC(C)c1c(-n2cccc2)sc(C)c1C (stereo not given),inactive: 10.1%
22,CCOc1cccc(CN2CCN(Cc3ccc(C)o3)C(CCO)C2)c1O (stereo not given),inactive: 9%
23,CC(=O)c1ccc(Nc2cc(C)nc3ccccc23)cc1,inactive: 9.78%
24,Cc1ccc(Cl)cc1NC(=O)Cn1c(=O)n(CCC(=O)NCc2ccc3c(c2)OCO3)c(=O)c2sccc21,inactive: 12.1%
25,NS(=O)(=O)c1ccc(CCNC(=O)c2ccc(Cl)c(S(=O)(=O)N3CCCCC3)c2)cc1,inactive: 23.3%
26,O=S(=O)(c1ccccc1)c1nc(-c2ccccc2Cl)oc1NCCCN1CCOCC1,inactive: -5.55%
27,COc1ccccc1C(=O)N/C(=C/c1ccc2c(c1)OCO2)C(=O)Nc1cccc(C(=O)O)c1,inactive: 6.26%

row,Compound,growth rescue (activation)
1,Cc1cc(C(=O)CN2C(=O)NC(CC(C)C)C2=O)c(C)n1C1CC1 (stereo not given),inactive: -41.8%
2,Cc1ccc(Nc2c(-c3ccccc3)nc3cnccn23)cc1,inactive: 8.7%
3,O=C(/C=C/c1ccccc1)NCCOc1ccccc1,inactive: 4.21%
4,COc1ccc(NC(=O)c2cc3c(s2)CCC(C)C3)cc1S(=O)(=O)N1CCOCC1 (stereo not given),inactive: 14.4%
5,CC1CC(C)CN(C(=O)C(C)N2CCN(S(=O)(=O)c3ccc(Br)s3)CC2)C1 (stereo not given),inactive: 20.8%
6,COc1ccc(/C(N)=N/OC(=O)COc2ccccc2Cl)cc1,inactive: -2.15%
7,Cc1ccc(/C=N/NC(=O)CSc2nnc(-c3ccc(Cl)cc3)n2-c2ccccc2)o1,inactive: 22.6%
8,O=c1[nH]c(CN2CCN(S(=O)(=O)/C=C/c3ccccc3)CC2)nc2cc(Cl)ccc12,inactive: 20%
9,Cn1/c(=N/NC(=O)c2ccccc2Br)sc2ccccc21,inactive: 2.38%
10,COc1ccc(-c2cc(-c3nnc(-c4ccncc4)o3)c3ccccc3n2)cc1,inactive: 12.4%
11,Cc1ccc(-c2cc(C(=O)N3CCOCC3)c3ccccc3n2)o1,inactive: 1.91%
12,CCN(CC)CC#CCC(O)(c1ccccc1)c1ccc(Br)cc1 (stereo not given),inactive: -1.28%
13,CCc1ccc2nc(NC(=O)c3ccc(N4C(=O)CCC4=O)cc3)sc2c1,inactive: 39.3%
14,CC12CCCC[C@@H]1CCC1C2CCC2(C)C1CC[C@@]2(O)CNCCO (stereo not given in full),inactive: 8.3%
15,O=C1CCCN1c1ccc(S(=O)(=O)N2CCCCC2)cc1,inactive: 2.8%
16,O=C(O)c1ccccc1NS(=O)(=O)c1ccc2c(c1)OCCO2,inactive: -3.36%
17,Cc1ccc(Cl)cc1NC(=O)Cn1c(=O)oc2cc(S(=O)(=O)N3CCCC3)ccc21,inactive: -4.02%
18,Nc1cc(N)nc(SCC(=O)NC(=O)NC2CCCC2)n1,inactive: 13.2%
19,O=C(NC(=S)NC1CCS(=O)(=O)C1)c1cccs1 (stereo not given),inactive: 7.64%
20,O=C(Nc1ccccc1)OCc1cncs1,inactive: 5.51%
21,CCCC(=O)Oc1ccc(C2NC(=O)c3ccccc3O2)cc1OC (stereo not given),inactive: 5.97%
22,CC(=O)Nc1c(O)nc(SCC(=O)Nc2nnc(SCc3ccccc3)s2)[nH]c1=O,inactive: -2.97%
23,CCSc1nnc(-c2ccccc2NC(=O)CC)c(=O)[nH]1,inactive: 2.07%
24,COC(=O)CC1C(=O)NCCN1Cc1cn(-c2ccc(C)cc2)nc1-c1cccc(C)c1 (stereo not given),inactive: 27.5%
